Whole data set: some 81,000 sequences, median “one-hybrid fitness for binding NBS DNA” near -0.1, cut for the highest 2% near 0.36. Some of the results follow.

B1: Caulobacter ParB omega fusion; a variant is named by its letters at X, in order, B8GW30 (parent)
chain: MESVVVGEPGMSEGRRGLGRGLSALLGEVDAAPAQAPGEQLGGSREAPIEILQRNPDQPRRTFREEDLEDLSNSIREKGVLQPILVRPSPDTAGEYQIVAGERAWRAAQRAGLKTVPIMVRELDDLAVLEIGIIENVQRADLNVLEEALSYKVLMEKFERTQENIAQTIGKSXSHVANXMRLLXLPDEVQSYLVSGELTAXHARAIAAAADPVALAKQIIEGGLSVRETEALARKAPNLSAGKSKGGRPPRVKDTDTQALESDLSSVLGLDVSIDHRGSTGTLTITYATLEQLDDLCNRLTRGI

In this test the parent is B1. Put plainly: one-hybrid fitness for binding NBS DNA (the Noc-binding site; scaled: cognate 1, non-cognate 0); higher = stronger binding. The conditions noted are these: with NBS DNA site. The method in brief:
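Fitness here means the log change in variant-to-wild-type read ratio between plasmids sequenced before and after selection. That scale was set so cognate equals 1 and non-cognate equals 0. The selection was a bacterial one-hybrid screen of Caulobacter ParB libraries, four specificity codons randomised, in E. coli USO carrying a HIS3 reporter with the site 19 bp from the promoter, grown 48 hours at 37°C on M9-minus-histidine with 0.1 mM IPTG and 5 mM 3-AT.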
YTWR: the “one-hybrid fitness for binding NBS DNA” value is at most 0.2.
In the case of FGRY, the “one-hybrid fitness for binding NBS DNA” value is at most 0.2.
The result for QFTY reads at most 0.2.
The result for PWNN reads at most 0.2.
Then QRFA, with 0.494.
Turning to ANYG, the “one-hybrid fitness for binding NBS DNA” value was at most 0.2.
Then DDLL, with at most 0.2.
Then SLAL, with at most 0.2; and YFQG, with at most 0.2; and VLCS, with at most 0.2.
The result for HSPK reads at most 0.2; that for KAFS, at most 0.2.
For TTKG, the “one-hybrid fitness for binding NBS DNA” value was at most 0.2.
Then YVRE, with at most 0.2.
As for WPVR, the “one-hybrid fitness for binding NBS DNA” value was at most 0.2.
The result for QRQN reads 0.402; that for LHFT, at most 0.2; that for DALI, at most 0.2.
The result for TMKI reads at most 0.2; that for YHGG, at most 0.2; that for PQYV, at most 0.2.
As for GVSS, the “one-hybrid fitness for binding NBS DNA” value is at most 0.2.
Then RELT, with at most 0.2.
Then LSWG, with at most 0.2.
The result for NCMR reads at most 0.2; that for VDMG, at most 0.2.
Turning to MKNF, the “one-hybrid fitness for binding NBS DNA” value was at most 0.2.
Then QGDC, with at most 0.2; and IRTM, with at most 0.2.
The result for DLTM reads at most 0.2; that for AKES, at most 0.2; that for NSRM, at most 0.2.
CDCT: the “one-hybrid fitness for binding NBS DNA” value was at most 0.2.
Then YEET, with at most 0.2.
The result for MNQC reads at most 0.2; that for KQGG, at most 0.2.
As to NTGI, the “one-hybrid fitness for binding NBS DNA” value was at most 0.2.
Then SGMQ, with at most 0.2; and MTLA, with at most 0.2.
The result for LRCY reads at most 0.2; that for QHTV, at most 0.2; that for SHKR, at most 0.2.
Then IQRC, with at most 0.2; and QHVG, with at most 0.2.
On to NKLE, for which the “one-hybrid fitness for binding NBS DNA” value was at most 0.2.
In the case of WPLT, the “one-hybrid fitness for binding NBS DNA” value is at most 0.2.
Then SLCR, with at most 0.2.
Then YIYL, with at most 0.2.
As for QRER, the “one-hybrid fitness for binding NBS DNA” value was found to be 0.637.
The result for VIYR reads at most 0.2; that for DDED, at most 0.2.
Then VTFW, with at most 0.2.
Take HSMC: the “one-hybrid fitness for binding NBS DNA” value was at most 0.2.
With QLAY, the “one-hybrid fitness for binding NBS DNA” value was at most 0.2.
QMLV: the “one-hybrid fitness for binding NBS DNA” value was at most 0.2.
IWGG: the “one-hybrid fitness for binding NBS DNA” value is at most 0.2.
Then DSFP, with at most 0.2; and WIIG, with at most 0.2.
The result for RNTT reads 0.215.
Then DCPT, with at most 0.2.
On to CNAR, for which the “one-hybrid fitness for binding NBS DNA” value was at most 0.2.
The result for LPCD reads at most 0.2.
For the variant HMLR, the “one-hybrid fitness for binding NBS DNA” value was at most 0.2.
On to RLIQ, for which the “one-hybrid fitness for binding NBS DNA” value is at most 0.2.
The result for HVYR reads at most 0.2.
ECCR: the “one-hybrid fitness for binding NBS DNA” value was at most 0.2.
On to RRYK, for which the “one-hybrid fitness for binding NBS DNA” value is 0.202.
The result for FRCS reads at most 0.2; that for MSSL, at most 0.2; that for LSMT, at most 0.2.
The result for GWHC reads at most 0.2; that for NKIM, at most 0.2.
The result for SLIC reads at most 0.2; that for TSEI, at most 0.2; that for TWMT, at most 0.2.
QTVA: the “one-hybrid fitness for binding NBS DNA” value came to 0.317.
Then HYNV, with at most 0.2.
The result for AVGV reads at most 0.2.
The result for DGDC reads at most 0.2.
In the case of PSYT, the “one-hybrid fitness for binding NBS DNA” value was at most 0.2.
For YKIR, the “one-hybrid fitness for binding NBS DNA” value is at most 0.2.
Then VSGG, with at most 0.2; and IQAG, with at most 0.2; and KQTA, with at most 0.2.
Regarding HNHC, the “one-hybrid fitness for binding NBS DNA” value was at most 0.2.
With PLRE, the “one-hybrid fitness for binding NBS DNA” value was at most 0.2.
Take RVMR: the “one-hybrid fitness for binding NBS DNA” value came out at 0.32.
On to KRRY, for which the “one-hybrid fitness for binding NBS DNA” value is 0.351.
Then RTPR, with 0.208; and YRRT, with 0.296; and SVHS, with at most 0.2.
RKKT: the “one-hybrid fitness for binding NBS DNA” value came out at 0.691.
As to DGHN, the “one-hybrid fitness for binding NBS DNA” value was at most 0.2.
With SPWT, the “one-hybrid fitness for binding NBS DNA” value was at most 0.2.
In the case of PLTD, the “one-hybrid fitness for binding NBS DNA” value is at most 0.2.
The result for PSSG reads at most 0.2; that for ETGC, at most 0.2.
Then CTTN, with at most 0.2; and PSRH, with at most 0.2.
As for HLYY, the “one-hybrid fitness for binding NBS DNA” value was at most 0.2.
The result for QLTY reads at most 0.2; that for HTWK, at most 0.2; that for KKMR, 0.201.
Then RRYL, with at most 0.2; and NNNS, with at most 0.2.
Then PRQR, with at most 0.2; and HILL, with at most 0.2.
On to RQLC, for which the “one-hybrid fitness for binding NBS DNA” value is at most 0.2.
Consider AEQF, for which the “one-hybrid fitness for binding NBS DNA” value was at most 0.2.
The result for AKSC reads at most 0.2.
Then SRGA, with at most 0.2; and FKER, with at most 0.2.
Then TMRP, with at most 0.2.
As to ADWT, the “one-hybrid fitness for binding NBS DNA” value is at most 0.2.
The result for ACQS reads at most 0.2; that for LRSM, at most 0.2; that for FAAT, at most 0.2.
On to WYHT, for which the “one-hybrid fitness for binding NBS DNA” value is at most 0.2.
The result for EPGS reads at most 0.2; that for TGVR, at most 0.2; that for NTYS, at most 0.2.
As to VLQS, the “one-hybrid fitness for binding NBS DNA” value is at most 0.2.
Regarding MAML, the “one-hybrid fitness for binding NBS DNA” value is at most 0.2.
Then PYSI, with at most 0.2.
Then NERT, with at most 0.2; and TRFA, with at most 0.2; and YSMY, with at most 0.2.
In the case of NITF, the “one-hybrid fitness for binding NBS DNA” value was at most 0.2.
Then RPSV, with at most 0.2.
For LWYG, the “one-hybrid fitness for binding NBS DNA” value is at most 0.2.
Turning to HWWF, the “one-hybrid fitness for binding NBS DNA” value is at most 0.2.
The result for CPAN reads at most 0.2; that for MIFS, at most 0.2.
Then RMTW, with at most 0.2; and FWSG, with at most 0.2.
The result for VKSG reads at most 0.2; that for WMSC, at most 0.2; that for VDRW, at most 0.2.
For the variant QRNI, the “one-hybrid fitness for binding NBS DNA” value turned out to be 0.403.
Then TKRC, with at most 0.2.
In the case of VICG, the “one-hybrid fitness for binding NBS DNA” value was at most 0.2.
Then RMWE, with at most 0.2.
Take RKCP: the “one-hybrid fitness for binding NBS DNA” value is at most 0.2.
Then QKHE, with at most 0.2; and ESAC, with at most 0.2; and KVKM, with at most 0.2.
The result for CRFY reads at most 0.2; that for DPIE, at most 0.2.
Then APAY, with at most 0.2; and TEKH, with at most 0.2; and WRAC, with at most 0.2.
Turning to RRYH, the “one-hybrid fitness for binding NBS DNA” value came to 0.436.
The result for HAAS reads at most 0.2.

The record behind these values is a collection of fitness landscapes (doi:10.1016/j.celrep.2020.107928).
